About 220 (0.56%) of roughly 39,000 compounds showed activity. Some of the results follow.
These compounds were tested on Escherichia coli K-12 BW25113 (assay: relative growth (OD600 normalised to plate interquartile mean) (fraction); higher = less growth inhibition, active = 0.2 or less). Details: 50 µM; LB; incubation time: overnight (16-24 h).
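Further: static incubation at 37 °C against the wild-type strain, values averaged over two biological replicates.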

Row | Compound | relative growth
1 | CC(C)NC(=O)N(C)C[C@H]1Oc2ccc(NS(=O)(=O)c3ccc(Cl)cc3)cc2C(=O)N([C@H](C)CO)C[C@@H]1C | inactive: 1.01
2 | C=C1OC(=O)C2=C1O[C@H](/C=C/C)[C@@H](O)[C@@H]2O | inactive: 1.01
3 | CC/C=C\C/C=C\C/C=C\C/C=C\C/C=C\CCCC(=O)O | inactive: 0.985
4 | O=C(N[C@H]1CC[C@H](CC(=O)N2CCOCC2)O[C@@H]1CO)c1ccccn1 | inactive: 1.03
5 | COC(=O)[C@H]1CCC(=O)N1 | inactive: 1.02
6 | Cc1noc(C)c1NC(=O)Nc1ccc2c(c1)CC(=O)N([C@H](C)CO)C[C@@H](C)[C@@H](CN(C)Cc1ccc(-c3ccccc3)cc1)O2 | inactive: 0.957
7 | Cn1c(=O)c2c(ncn2CCCN)n(C)c1=O | inactive: 1.01
8 | C[C@@H]1CCCCO[C@H](CN(C)Cc2ccc(C(=O)Nc3ccccc3N)cc2)[C@@H](C)CN([C@@H](C)CO)C(=O)c2cc(N(C)C)ccc2O1 | inactive: 0.983
9 | CC(C)NC(=O)N(C)C[C@H]1Oc2ccc(NC(=O)NC3CCCCC3)cc2CC(=O)N([C@@H](C)CO)C[C@@H]1C | inactive: 1
10 | COc1ccc(NC(=O)Nc2ccc3c(c2)C(=O)N([C@H](C)CO)C[C@@H](C)[C@H](CN(C)S(=O)(=O)c2ccc(F)cc2)OCCCC[C@@H](C)O3)cc1 | inactive: 1.01
11 | CCCc1nc(C(C)(C)O)c(C(=O)OCc2oc(=O)oc2C)n1Cc1ccc(-c2ccccc2-c2nn[nH]n2)cc1 | inactive: 1.1
12 | Nc1ccn(C2CCC(CO)O2)c(=O)n1 (stereo unspecified) | inactive: 1.1
13 | Cc1cccc(S(=O)(=O)N2C[C@@H](O)COC[C@@H]3O[C@H](CC(=O)NCCCN4CCOCC4)CC[C@H]32)c1 | inactive: 0.979
14 | CC(C)NC(=O)N(C)C[C@H]1Oc2ccc(NC(=O)CCC(F)(F)F)cc2CC(=O)N([C@@H](C)CO)C[C@@H]1C | inactive: 1.01
15 | COc1ccc(NC(=O)N(C)C[C@H]2Oc3ccc(NS(=O)(=O)c4c(C)noc4C)cc3C(=O)N([C@@H](C)CO)C[C@H]2C)cc1 | inactive: 1
16 | Cc1ccc(S(=O)(=O)Nc2ccc3c(c2)CC(=O)N([C@@H](C)CO)C[C@H](C)[C@@H](CN(C)Cc2ccc(Cl)c(Cl)c2)O3)cc1 | inactive: 1.02
17 | C[C@@H]1CN([C@H](C)CO)C(=O)Cc2cc(NS(C)(=O)=O)ccc2O[C@@H]1CN(C)S(C)(=O)=O | inactive: 1
18 | C[C@H]1CN([C@@H](C)CO)C(=O)c2cc(C#CCC3CCCC3)cnc2O[C@@H]1CN(C)C(=O)c1cnccn1 | inactive: 0.997
19 | COc1ccc(NC(=O)Nc2ccc3c(c2)C(=O)N([C@@H](C)CO)C[C@H](C)[C@H](CN(C)C(=O)NC(C)C)OCCCC[C@@H](C)O3)cc1 | inactive: 1
20 | O=C(C[C@@H]1C=C[C@@H](NC(=O)CN2CCOCC2)[C@H](CO)O1)NC1CCCCC1 | inactive: 0.997
21 | C[C@H]1CN([C@@H](C)CO)C(=O)Cc2cc(NS(=O)(=O)c3cccs3)ccc2O[C@H]1CN(C)S(=O)(=O)c1cccs1 | inactive: 1

Row | Compound | relative growth
22 | C[C@@H]1CN([C@@H](C)CO)C(=O)c2cc(NC(=O)CCCCCC(=O)Nc3ccccc3N)ccc2O[C@@H]1CN(C)Cc1ccc(C(F)(F)F)cc1 | inactive: 1.02
23 | C[C@@H]1CN([C@@H](C)CO)C(=O)c2cccc(N(C)C)c2O[C@H]1CN(C)S(=O)(=O)c1ccc(Cl)cc1 | inactive: 0.977
24 | O=C(C[C@@H]1C=C[C@@H](NC(=O)c2cnccn2)[C@H](CO)O1)NCc1ccccc1F | inactive: 0.986
25 | Cc1ccc(S[C@]2(C(=O)NCC(C)C)CC(=O)N(Cc3ccccc3)[C@@H]2c2ccc(CO)cc2)cc1 | inactive: 0.988
26 | CSc1nc(=O)c(C)n[nH]1 | inactive: 0.98
27 | C[C@@H]1CN([C@@H](C)CO)C(=O)c2cc(-c3ccc(C(=O)N(C)C)cc3)cnc2O[C@H]1CN(C)C(=O)c1ccncc1 | inactive: 0.993
28 | O=C(NCC[C@H]1CC[C@@H](NS(=O)(=O)c2cccc(F)c2)[C@H](CO)O1)C1CC1 | inactive: 0.981
29 | C[C@@H]1CN([C@@H](C)CO)C(=O)Cc2cc(NS(=O)(=O)c3ccc(Cl)cc3)ccc2O[C@H]1CN(C)C(=O)Nc1ccc(C(F)(F)F)cc1 | inactive: 1.04
30 | C[C@@H]1CCCCO[C@H](CN(C)C(=O)CCC(F)(F)F)[C@H](C)CN([C@@H](C)CO)C(=O)c2cc(NS(=O)(=O)c3ccc(F)cc3)ccc2O1 | inactive: 0.983
31 | C[C@H]1CCCCO[C@H](CN(C)S(=O)(=O)c2cccs2)[C@@H](C)CN([C@@H](C)CO)C(=O)c2cc(NC(=O)Nc3ccc(F)cc3)ccc2O1 | inactive: 1.02
32 | C[C@@H]1CN([C@@H](C)CO)S(=O)(=O)c2ccc(C#CCN(C)C)cc2O[C@@H]1CN(C)Cc1ccncc1 | inactive: 1
33 | O=C1OCCN/C1=C/C(=O)c1ccccc1 | inactive: 1.01
34 | O=C(C[C@H]1CC[C@@H]2[C@H](COC[C@H](O)CN2C(=O)Nc2ccc(Cl)c(Cl)c2)O1)NCc1ccc(Cl)c(Cl)c1 | inactive: 0.963
35 | O=C(N[C@@H]1CC[C@H](CC(=O)N2CCOCC2)O[C@@H]1CO)c1ccccn1 | inactive: 0.863
36 | COC(=O)OCOc1c2n(ccc1=O)N([C@@H]1c3ccccc3SCc3c1ccc(F)c3F)[C@@H]1COCCN1C2=O | inactive: 1.03
37 | C[C@@H]1CN([C@H](C)CO)C(=O)c2cccc(NC(=O)c3ccc(-c4nccs4)cc3)c2O[C@@H]1CN(C)C(=O)NC1CCCCC1 | inactive: 0.992
38 | C[C@@H]1CN([C@H](C)CO)C(=O)c2cccc(NS(=O)(=O)c3cn(C)cn3)c2O[C@@H]1CN(C)C(=O)Nc1ccccc1 | inactive: 0.98
39 | Cc1ccc(S(=O)(=O)Nc2ccc3c(c2)C(=O)N([C@H](C)CO)C[C@H](C)[C@@H](CN(C)C(=O)Cc2ccccc2)OCCCC[C@H](C)O3)cc1 | inactive: 0.996
40 | CN(C)c1nc(SCCO)nc(N(C)C)n1 | inactive: 1.02
41 | C[C@@H]1CN([C@H](C)CO)C(=O)c2cc(NC(=O)Cc3ccccc3)ccc2O[C@@H](C)CCCCO[C@@H]1CN(C)Cc1ccc(C(=O)O)cc1 | inactive: 0.902
